US12104176B2, “Efficient cell culture system for hepatitis C virus genotype 6A” (priority 2018, dated 2024)

Tested on: HK2 full-length virus

CC(C)OC(=O)[C@H](C)N[P@](=O)(OC[C@H]1O[C@@H](n2ccc(=O)[nH]c2=O)[C@](C)(F)[C@@H]1O)Oc1ccccc1 [Sofosbuvir]
outcome of long-term treatment (HK2, sofosbuvir 1140 nM): failed to suppress the established infection | day after treatment initiation from which culture was HCV antigens negative (HK2, sofosbuvir 2280 nM, FIG. 9B): 7 days
